According to the supplement of paper PMC4967469:

How the values were obtained:
FK866 = compound: O=C(/C=C/c1cccnc1)NCCCCC1CCN(C(=O)c2ccccc2)CC1 [FK866]; experiment: Viability of human cancer cell lines after 72 h of drug (GDSC screen); settings: top dose 1 µM; top dose inferred
Procedure: (§1)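 Human cancer cell lines in 384-well plates, medium with 10% serum, drug for 72 h over a 256-fold dose range (nine 2-fold or five 4-fold steps up to the top dose). Adherent lines were fixed and stained with the nucleic acid dye Syto60, suspension lines read with resazurin; signal relative to control wells, capped at 0 and 100%. One two-parameter sigmoid per drug and line, fitted in a mixed model over all curves with the slope shared within a line.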

FR-180204 = compound: Nc1[nH]nc2nnc(-c3c(-c4ccccc4)nn4ccccc34)cc12 [FR-180204]; experiment: as above; settings: top dose 20 µM; top dose inferred
Procedure: as §1

Row | Cell Line | AUC (FK866) | IC50 (FK866) [nM] | AUC (FR-180204) | IC50 (FR-180204) [nM]
1 | LU-135 (small cell lung carcinoma, suspension) | 0.093 | 4.06 | 0.984 | > 20000
2 | LU-139 (small cell lung carcinoma, suspension) | 0.141 | < 3.91 | 0.98 | > 20000
3 | LU-165 (small cell lung carcinoma, suspension) | 0.331 | 19.9 | 0.985 | > 20000
4 | LXF-289 (lung adenocarcinoma, adherent) | 0.604 | 120 | 0.985 | > 20000
5 | LoVo (large intestine, adherent) | 0.798 | 484 | 0.987 | > 20000
6 | M14 (melanoma, adherent) | 0.335 | 21.2 | 0.838 | 14600
7 | M059J (glioma, adherent) | 0.342 | 21.9 | 0.979 | > 20000
8 | MC116 (B-cell lymphoma, suspension) | 0.013 | < 3.91 | 0.999 | > 20000
9 | MC-CAR (haematopoietic neoplasm, suspension) | 0.029 | < 3.91 | 0.944 | > 20000
10 | MC-IXC (neuroblastoma, adherent) | 0.036 | < 3.91 | 0.995 | > 20000
11 | MCF7 (breast, adherent) | 0.539 | 80.2 | 0.986 | > 20000
12 | MDA-MB-175-VII (breast, adherent) | 0.982 | > 1000 | 0.949 | > 20000
13 | MDA-MB-231 (breast, adherent) | 0.542 | 81.9 | 0.976 | > 20000
14 | MDA-MB-330 (breast, adherent) | 0.97 | > 1000 | 0.978 | > 20000
15 | MDA-MB-361 (breast, adherent) | 0.969 | > 1000 | 0.97 | > 20000
16 | MDA-MB-415 (breast, adherent) | 0.95 | > 1000 | 0.983 | > 20000
17 | MDA-MB-436 (breast, adherent) | 0.843 | > 1000 | 0.98 | > 20000
18 | MDA-MB-453 (breast, adherent) | 0.641 | 161 | 0.981 | > 20000
19 | MDST8 (large intestine, adherent) | 0.159 | 5.67 | 0.955 | > 20000
20 | ME-1 (acute myeloid leukaemia, suspension) | 0.945 | > 1000 | 0.953 | > 20000

Row | Cell Line | AUC (FK866) | IC50 (FK866) [nM] | AUC (FR-180204) | IC50 (FR-180204) [nM]
21 | ME-180 (cervix, adherent) | 0.404 | 33.6 | 0.957 | > 20000
22 | MEG-01 (chronic myeloid leukaemia, suspension) | 0.105 | < 3.91 | 0.907 | > 20000
23 | MEL-JUSO (melanoma, adherent) | 0.283 | 14 | 0.97 | > 20000
24 | MES-SA (uterus, adherent) | 0.991 | > 1000 | 0.99 | > 20000
25 | MFE-280 (endometrium, adherent) | 0.058 | < 3.91 | 0.953 | > 20000
26 | MFE-296 (endometrium, adherent) | 0.191 | 6.85 | 0.982 | > 20000
27 | MFE-319 (endometrium, adherent) | 0.421 | 38.3 | 0.986 | > 20000
28 | MFH-ino (soft tissue, adherent) | 0.201 | 6.73 | 0.976 | > 20000
29 | MFM-223 (breast, adherent) | 0.197 | 8 | 0.989 | > 20000
30 | MG-63 (osteosarcoma, adherent) | 0.107 | < 3.91 | 0.982 | > 20000
31 | MHH-ES-1 (Ewing sarcoma, adherent) | 0.049 | < 3.91 | 0.937 | > 20000
32 | MHH-PREB-1 (B-cell leukaemia, suspension) | 0.023 | < 3.91 | 0.927 | > 20000
33 | MKN1 (stomach, adherent) | 0.516 | 69.2 | 0.979 | > 20000
34 | MKN45 (stomach, adherent) | 0.336 | 19.3 | 0.983 | > 20000
35 | ML-1 (thyroid, adherent) | 0.937 | > 1000 | 0.973 | > 20000
36 | MLMA (hairy cell leukaemia, semi-adherent) | 0.981 | > 1000 | 0.886 | > 20000
37 | MMAC-SF (melanoma, adherent) | 0.506 | 65 | 0.984 | > 20000
38 | MN-60 (B-cell leukaemia, suspension) | 0.056 | < 3.91 | 0.982 | > 20000
39 | MOG-G-CCM (glioma, adherent) | 0.952 | > 1000 | 0.982 | > 20000
40 | MOG-G-UVW (glioma, adherent) | 0.07 | < 3.91 | 0.987 | > 20000

A lower IC50 marks a more sensitive line; where the fit passes the top or lowest dose, that dose stands as a limit. AUC, from the same fit, is the share of area under the viability curve across the 256-fold dose range: 1 means no effect, lower means more sensitive. Any top dose called inferred was derived from the fitted curves, not read from the paper.
